This passage reports self-cleavage results from the RNAGym collection of RNA variant scans (doi:10.1093/nar/gkz1192).

The source gives no read counts; variants with many changes may rest on few reads.

The chains are these.
B1: CPEB3 Ribozyme (parent)
chain: UAACAGGGGGCCACAGCAGAAGCGUUCACGUCGCAGCCCCUGUCAGAUUCUGGUGAAUCUGCGAAUUCUGCUGUAUAUCUC

Variants of B1 are the subject of the data set. Briefly: self-cleavage, relative activity (ratio to wild type); higher = more cleavage; in vitro, sequencing. The method in brief:
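For each CPEB3 ribozyme variant, relative activity is its cleaved/total read fraction divided by the unmutated ribozyme's. Barcoded error-prone PCR libraries were transcribed by T7 RNA polymerase (5 hours, 37°C) and held in DNase I for 15 min before an EDTA stop, with cleavage occurring throughout. Template-switching reverse transcription and Illumina sequencing were used to read the RNAs. A 5-read minimum applied, and results are the mean of three batches.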
As for G7A G33A A35G A56U, the self-cleavage turned out to be 0.14. On to G7C A13G A57G, for which the self-cleavage came out at 0.32. Turning to G7U C14U A21G A45U U54A A57G U67C, the self-cleavage is 0.09. Turning to G7A U26C U41C U51C, the self-cleavage was determined as 0.07. Regarding G7A C23U U26C, the self-cleavage was found to be 0.05. Consider G7U A28G U72C, for which the self-cleavage is 0.15.

On to G7A U49A A57C U80C, for which the self-cleavage came out at 0.06. Regarding G7C A15G C32U U51C A56G U58C A75U, the self-cleavage turned out to be 0.03.

Consider G7A G30A C34A C62A, for which the self-cleavage came out at 0.07.

On to G7C C32A U67C, for which the self-cleavage was found to be 0.31. Take G7C C17G A18G C32U A45C A64G U72C: the self-cleavage is 0.04. For the variant G7C A13G G30U U58C, the self-cleavage was 0.14. For G7C C23U U51A A56U, the self-cleavage was 0.2. The same measure for G7U A18C G42A: 0.17.

For the variant G7U G10A A15U G19U, the self-cleavage was 0.22. On to G7A U25A U74A, for which the self-cleavage amounted to 0.07. As to G7C C23U U51A A56G A65U U66C U72A, the self-cleavage was determined as 0.04.

Regarding G7U A18C A35U, the self-cleavage was determined as 0.2. For the variant G7A G24U U54C C71A, the self-cleavage was determined as 0.1. The result for G7U C12U A35U U58C reads 0.05; that for G7A U41C U66C, 0.34; that for G7U A20G G36U U41C U72C U78G U80A, 0.11. G7A U31G A65G U72C: the self-cleavage was 0.06. With G7A U43C U60A U80C, the self-cleavage came out at 0.1. With G7U C40A U41A U78C, the self-cleavage was 0.09. With G7A G8C A13G U66C U69A, the self-cleavage came to 0.08. With G7U G9U A15U C50A U51C U60G A75G, the self-cleavage is 0.07. The same measure for G7C A13U A18U U31C U41G U69A: 0.05; for G7U A21G U26C C38A G46A U78C U80C: 0.12; for G7C A18U A45C U51C A57C U67C U76C: 0.08.

As to G7C A18C A47U U66C U67C A75G, the self-cleavage was found to be 0.19. Turning to G7U A15U C39A A56G U72A U74C, the self-cleavage amounted to 0.06. As for G7A G36U A45G A47G, the self-cleavage was 0.11. Regarding G7C A20U U26C C29U U41C U60C, the self-cleavage was 0.03. For G7A C27G U49A U54C U60A, the self-cleavage turned out to be 0.09.

For the variant G7U C29U U31C U41C U49C U80C, the self-cleavage came out at 0.05. Take G7C U49C U67C: the self-cleavage was determined as 0.15. In the case of G7C A35U U54C U58A, the self-cleavage was 0.07. As to G7U A57G A65G A77G, the self-cleavage is 0.09.

Regarding G7U A56G U72A, the self-cleavage was 0.15. In the case of G7C U26A A56U A57G A64U U80C, the self-cleavage came to 0.8. As to G7U A13U A20G C23U C32A G61A G73A, the self-cleavage stood at 0.05. Take G7U C14U U54A A57G U67C: the self-cleavage stood at 0.04.

In the case of G7U A20G U78C U80C, the self-cleavage was 0.06. The result for G7A U41A U43C reads 0.09; that for G7A U66G A77U, 0.06; that for G7A U41A U54A, 0.06. As to G7U A21G U41C A56G U80C, the self-cleavage was 0.31. Consider G7A C12U U25C A35U U78C, for which the self-cleavage is 0.05.

Turning to G7U A28G U48C U51C A56G U78C, the self-cleavage worked out at 0.04. The result for G7U G9C U60A reads 0.05; that for G7C C23G U25C U31A U80C, 0.05; that for G7C A18U A20G A28C, 0.28.

G7C A28G A45C U51A: the self-cleavage came out at 0.24. The same measure for G7A G33A U51C: 0.06. Regarding G7A U43C U54A U74G, the self-cleavage was 0.04. Turning to G7A U43C U58A C68U U78C, the self-cleavage worked out at 0.09. The same measure for G7C A13G G36A A64U: 0.05. Regarding G7U C17U U48C U58C A64G, the self-cleavage came to 0.1. For the variant G7C A15G A18G A45G U72C, the self-cleavage was determined as 0. Turning to G7A U31C U41C, the self-cleavage came out at 0.21. Consider G7A U25C U43C U66C U80C, for which the self-cleavage turned out to be 0.12. For the variant G7A U26C A28G C29A U48A, the self-cleavage amounted to 0.23. G7U A35G U60C U67C: the self-cleavage came to 0.1. The same measure for G7A G30U U51C: 0.05; for G7C A15G U31C G46U A57U U69A U80G: 0.11. As for G7C G8U U31G A47U U51C U54C, the self-cleavage is 0.04. On to G7C A15G A20G A21G U43G A56G, for which the self-cleavage worked out at 0.

For the variant G7C A13U U31A, the self-cleavage turned out to be 0.1.

For the variant G7A C17U U80C, the self-cleavage is 0.4. For G7C A21G A28G G30C C44U U74A, the self-cleavage was determined as 0.05.

On to G7C U31A A35C U66C C81A, for which the self-cleavage was 0.3.

In the case of G7U A56U U72A, the self-cleavage worked out at 0.37. G7U A15U U25A A57G A75G: the self-cleavage was found to be 0.04.

In the case of G7U A15G U31A U72A, the self-cleavage came out at 0.05.

For G7U C14U A47U C59U U60C U66C U78C, the self-cleavage came to 0.07. As for G7U C11U A35U A45U C62A U69G, the self-cleavage is 0.08. Regarding G7C G53C U72C U78C, the self-cleavage amounted to 0.09. As for G7C A18G U25A U31C U78C, the self-cleavage came out at 0.28. The same measure for G7A G9A U60A U67G: 0.06. Turning to G7A U49C U54C, the self-cleavage came out at 0.37. As for G7A U26A U43A A47G, the self-cleavage is 0.09. The result for G7U A45U G52C U78C reads 0.18.
